Out of some 360,000 compounds screened, about 25,000 (6.9%) were called active. Inconclusive results, whose numbers are uncertain, are shown with a selection of clear calls. Calls come from the whole dose curve; as a rule, active = well fitted inhibition curve with a large enough effect; inconclusive = small, poorly fitted or top-dose-only effect; inactive = flat fitted curve, though single readings scatter. A potency beside an inconclusive call is a rough fit, not a confirmed value.
Each molecule was assayed against Luciferin 4-monooxygenase (Photinus pyralis) (UniProt P08659) (assay: qHTS profiling assay for firefly luciferase inhibitor/activator using purifed enzyme and Km concentrations of substrates (counterscreen for miR-21 project)). Conditions: purified FLuc, luminescence inhibition; activity change, negative = inhibition: at 57.5 µM (top of the series).
Sequence of UniProt P08659 (P08659 whole entry, looked up): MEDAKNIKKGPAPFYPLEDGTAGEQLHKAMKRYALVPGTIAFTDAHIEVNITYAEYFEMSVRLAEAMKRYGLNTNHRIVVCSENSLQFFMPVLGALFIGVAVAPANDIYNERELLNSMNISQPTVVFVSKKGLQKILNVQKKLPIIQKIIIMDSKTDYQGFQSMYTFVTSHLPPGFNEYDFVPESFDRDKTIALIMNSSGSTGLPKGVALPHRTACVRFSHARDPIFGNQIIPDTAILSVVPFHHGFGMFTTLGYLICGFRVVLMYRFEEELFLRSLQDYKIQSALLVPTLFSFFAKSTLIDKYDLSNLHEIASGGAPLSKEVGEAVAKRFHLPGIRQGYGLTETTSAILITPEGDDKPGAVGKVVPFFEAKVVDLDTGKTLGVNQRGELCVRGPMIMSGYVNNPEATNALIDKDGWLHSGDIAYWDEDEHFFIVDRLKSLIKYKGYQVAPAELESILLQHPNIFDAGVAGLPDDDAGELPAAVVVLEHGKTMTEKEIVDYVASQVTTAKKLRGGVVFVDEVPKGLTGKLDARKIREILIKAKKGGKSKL
Procedure, shortened: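 Purified P. pyralis luciferase (10nM final) with 10uM D-luciferin and 10uM ATP (Km levels) in 50mM Tris acetate pH 7.5, 10mM Mg acetate, 0.01% Tween-20, 0.05% BSA; qHTS 6-point titration, ~60 µM downward; luminescence read.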
Note: nearly all actives have a fitted effect of over 55% in size.
Potency is the fitted concentration of half-maximal effect; tags give direction and shape of the fitted curve.
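Throughout, for activity change, negative = inhibition: plate controls were vehicle for no effect and reference inhibitor for full effect.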

Structure (SMILES)	Potency	activity change, negative = inhibition
CCc1ccccc1-n1c(SCC(=O)Nc2ccc3c(c2)OCCO3)nc2[nH]ncc2c1=O	active: 16.9 µM	
Cc1nc(NC(=O)CN2CCOCC2)sc1-c1ccccc1	inconclusive: 16.9 µM [inhibitor, partial curve]	
CCC(=O)c1c[nH]c(C(=O)NCCc2ccccn2)c1	inconclusive: 30.1 µM [inhibitor, partial curve, poor fit]	
C#CCn1cnc2c(oc3ccccc32)c1=O	inconclusive: 23.9 µM [inhibitor, partial curve, poor fit]	
O=C(CN1CCOCC1)Nc1ccc2c(c1)OCCO2	inconclusive: 37.9 µM [inhibitor, partial curve, poor fit]	
CCOc1ccc(-c2cn3ccccc3n2)cc1	active: 0.536 µM	
Cc1ncc([N+](=O)[O-])n1CC(=O)NC1CCCCCC1		inactive: -10.2%
CCOc1ccc(-c2cc(CCCC(=O)NCCc3ccccc3)no2)cc1	inconclusive: 10.7 µM [inhibitor, partial curve]	
COc1ccccc1CC(=O)N(Cc1ccccc1)c1ccc(C)cc1	inconclusive: 21.3 µM [inhibitor, partial curve]	
COC(=O)C1=CN(Cc2ccc(OC)cc2)C=C(C(=O)OC)C1c1ccsc1	inconclusive: 0.0085 µM [inhibitor, partial curve, poor fit]	
COc1ccc(Cl)cc1NC(=O)c1c(NCc2ccc(C)o2)sc2c1CCCCC2	inconclusive: 30.1 µM [inhibitor, partial curve, poor fit]	
O=C(Nc1ccc(F)cc1)Nc1ccc(N2CCCC2)c(S(=O)(=O)Nc2ccccc2Cl)c1	inconclusive: 23.9 µM [inhibitor, partial curve, poor fit]	
C=CCOC(=O)/C(=C\c1ccccc1)NC(=O)c1ccc(C)cc1	inconclusive: 26.9 µM [inhibitor, single point]	
Cc1ccc(C(=O)/C=C/C(=O)c2ccc(C)cc2)cc1	inconclusive: 12 µM [inhibitor, partial curve]	
c1ccc2oc(SCc3nc4ccccc4s3)nc2c1	active: 4.78 µM	
CSc1ncc2c(n1)-c1ccccc1N(Cc1ccc(Cl)cc1)S2(=O)=O		inactive: 0.0374%
O=C(Nc1ccccc1C(=O)NC(Cc1ccc(O)cc1)C(=O)O)c1ccccc1 (stereo not drawn)	inconclusive: 21.3 µM [inhibitor, partial curve, poor fit]	
CC(C)C[C@H](CO)Nc1nc(Nc2cccc(Cl)c2)c2ncn(C(C)C)c2n1	inconclusive: 26.9 µM [inhibitor, partial curve, poor fit]	
CCn1c(C(=O)NCCc2ccc(OC)c(OC)c2)cc2sc(Cl)cc21	inconclusive: 21.3 µM [inhibitor, partial curve, poor fit]	
O=C(/C=C/c1ccc(F)cc1)N1CCCc2ccccc21	inconclusive: 23.9 µM [inhibitor, partial curve]	
O=C1N=C(N2CCc3ccccc3C2)S/C1=C\c1cccc(O)c1	inconclusive: 23.9 µM [inhibitor, single point]	
CC1CCCN(C(=O)CSc2nnc(-c3c[nH]c4ccccc34)o2)C1 (stereo not drawn)	inconclusive: 33.8 µM [inhibitor, single point]	

Structure (SMILES)	Potency	activity change, negative = inhibition
COc1ccc(Cl)cc1NC(=S)NC(=O)c1ccco1	inconclusive: 3.38 µM [inhibitor, partial curve]	
CCc1n[nH]c(=S)n1/N=C/c1ccc(N(CC)CC)cc1	inconclusive: 26.9 µM [inhibitor, single point]	
c1ccc2nc3c(nc2c1)[nH]c1ccccc13	active: 3.79 µM	
COc1ccc(C(=O)NNC(=O)C23CC4CC(CC(C4)C2)C3)cc1OC		inactive: -2.56%
C=CCN1C(=O)C(=O)N(CC(=O)c2ccc3c(c2)CCCC3)C1=O		inactive: -17.5%
O=C(c1ccc2ncsc2c1)N1CCN(c2ccccc2Cl)CC1	inconclusive: 21.3 µM [inhibitor, single point]	
Cc1nc(NC(=O)c2ccccc2)sc1Cc1ccc2c(c1)OCO2	inconclusive: 7.57 µM [inhibitor, partial curve, poor fit]	
CCOc1ccc(NC(=O)c2ccc(NC(=O)N3CCSc4ncccc43)cc2)cc1	inconclusive: 8.49 µM [inhibitor, partial curve, poor fit]	
O=C(/C=C/c1ccccc1)Nc1nnc(SCC(=O)c2ccc3ccccc3c2)s1		inactive: -11.5%
CCOc1cc(/C=C2\C(=O)ON=C2c2ccccc2)ccc1OC	inconclusive: 21.3 µM [inhibitor, partial curve]	
CCCCc1n[nH]c2c1/C(=N/O)CC(c1ccccc1)C2 (stereo not drawn)	inconclusive: 3.01 µM [inhibitor, partial curve, poor fit]	
CC(=O)N1CCc2cc(Br)cc(S(=O)(=O)N3CCN(c4cccc(C(F)(F)F)c4)CC3)c21		inactive: -0.948%
COc1ccccc1CCNC(=O)C(=O)NCC1OCCN1S(=O)(=O)c1ccc([N+](=O)[O-])cc1 (stereo not drawn)		inactive: -1.75%
COC(=O)Cc1c(C)c2cc(Cl)c(OC(=O)c3ccco3)cc2oc1=O	inconclusive: 19 µM [inhibitor, single point]	
C/C(=N/NC(=O)c1ccoc1C)c1ccc(NC(=O)C2CCCC2)cc1	inconclusive: 9.53 µM [inhibitor, partial curve]	
Cc1ccc(S(=O)(=O)N(C)C)cc1NC(=O)COC(=O)C1CCN(S(=O)(=O)c2cccs2)CC1		inactive: -1.17%
O=C(CN1C(=O)NC2(CCCCCC2)C1=O)c1ccc(OC(F)F)cc1OC(F)F		inactive: 4.34%
COCCCNC(=S)Nc1c(C)cc(C)cc1C		inactive: 1.95%
COc1ccc(/C=N/NC(=O)c2cc3c(ccc4ccccc43)o2)c(OC)c1	inconclusive: 9.53 µM [inhibitor, partial curve]	
O=C(NN=C1C2CC3CC1CC(Cl)(C3)C2)c1cccs1	inconclusive: 26.9 µM [inhibitor, partial curve, poor fit]	
O=C(CCCOc1ccc(Cl)cc1Cl)Nc1ccc(O)cc1C(=O)O	inconclusive: 26.9 µM [inhibitor, single point]	
